Among all 310,000 compounds or so, about 2,200 (0.71%) showed an effect of 50% or more. Effects have a minus sign here. Some of the results follow.

Consider 44 molecules from publication PMC4336329 (PLoS ONE, 2015).

The target of the assay is human ether-à-go-go-related gene (hERG) potassium channel (human, UniProt Q12809). Description: primary screen, population patch clamp on CHO cells stably expressing hERG.
Chain of human ether-à-go-go-related gene (hERG) potassium channel (Q12809 whole entry, looked up): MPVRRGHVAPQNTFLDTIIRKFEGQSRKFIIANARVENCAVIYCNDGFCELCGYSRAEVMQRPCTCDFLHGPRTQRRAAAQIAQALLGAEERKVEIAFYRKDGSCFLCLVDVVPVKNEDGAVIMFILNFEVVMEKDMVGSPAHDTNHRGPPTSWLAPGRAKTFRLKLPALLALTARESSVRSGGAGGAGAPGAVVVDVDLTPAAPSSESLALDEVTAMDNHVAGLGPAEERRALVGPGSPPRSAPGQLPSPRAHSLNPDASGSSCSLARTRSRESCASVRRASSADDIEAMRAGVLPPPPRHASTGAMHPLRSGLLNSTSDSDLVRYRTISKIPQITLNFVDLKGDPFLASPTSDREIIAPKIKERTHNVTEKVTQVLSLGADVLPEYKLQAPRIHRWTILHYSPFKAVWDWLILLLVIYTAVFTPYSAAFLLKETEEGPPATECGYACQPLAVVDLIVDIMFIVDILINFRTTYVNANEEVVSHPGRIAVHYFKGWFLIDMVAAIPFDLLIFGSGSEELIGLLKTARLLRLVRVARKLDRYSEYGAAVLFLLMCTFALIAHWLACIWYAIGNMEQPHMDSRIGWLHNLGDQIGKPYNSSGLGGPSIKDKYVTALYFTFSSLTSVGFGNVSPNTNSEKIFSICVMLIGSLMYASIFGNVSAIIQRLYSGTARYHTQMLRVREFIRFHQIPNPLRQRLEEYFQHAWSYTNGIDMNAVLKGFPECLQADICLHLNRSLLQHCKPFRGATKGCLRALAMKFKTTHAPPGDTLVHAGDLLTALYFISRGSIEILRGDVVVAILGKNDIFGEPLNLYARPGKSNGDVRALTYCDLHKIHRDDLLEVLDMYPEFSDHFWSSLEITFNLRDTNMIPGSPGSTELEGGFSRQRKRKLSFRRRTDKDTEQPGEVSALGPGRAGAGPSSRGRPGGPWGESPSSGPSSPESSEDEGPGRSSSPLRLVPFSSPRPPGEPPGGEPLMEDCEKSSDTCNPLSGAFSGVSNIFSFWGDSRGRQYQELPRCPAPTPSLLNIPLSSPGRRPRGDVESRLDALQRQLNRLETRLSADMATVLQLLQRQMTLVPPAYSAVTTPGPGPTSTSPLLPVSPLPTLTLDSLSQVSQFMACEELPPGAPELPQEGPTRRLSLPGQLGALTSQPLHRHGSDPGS
`Cc1ccc(C(=O)NCC(=O)NCC(=O)OCC(=O)c2ccc(F)cc2)cc1`: the “hERG current change (%, negative = inhibition) at 1uM” value is 6.21%.
`CC(Sc1nc2ccccc2c(=O)n1C)C(=O)N(C)C1CCCCC1` (centres unmarked): the “hERG current change (%, negative = inhibition) at 1uM” value is -10.3%.
On to `CCc1n[nH]c(=S)n1N=C1CCC(C)CC1` (centres unmarked), for which the “hERG current change (%, negative = inhibition) at 1uM” value was determined as 9.49%.
Take `COc1cc(/C=C/c2nnc3c4ccccc4ncn23)cc(OC)c1OC`: the “hERG current change (%, negative = inhibition) at 1uM” value came to 11.8%.
With `O=C1CCCN1CCCNc1nc2c(S(=O)(=O)c3ccc(Br)cc3)nnn2c2ccccc12` the figure was 17.5%; with `Cc1ccc(S(=O)(=O)N2CCOCC2)cc1C(=O)NCc1cccnc1`, 15.1%.
Consider `O=c1cc(NCc2ccccc2)c2ccccc2o1`, for which the “hERG current change (%, negative = inhibition) at 1uM” value is listed as -4.32%.
Regarding `O=c1c2c3c(sc2nc2n1CCCC2)CCCC3`, the “hERG current change (%, negative = inhibition) at 1uM” value amounted to 8.98%.
With `COc1ccc(C(C)NCCC(c2ccc(OC(C)C)cc2)c2ccccc2OC)cc1` (centres unmarked) the figure was 5.45%.
Take `CC(C)N=c1cc2n(-c3ccc(Cl)cc3)c3ccccc3nc-2cc1Nc1ccc(Cl)cc1`: the “hERG current change (%, negative = inhibition) at 1uM” value was found to be 21.4%.
For the molecule `Cc1ccc(-c2c(C)n([O-])c3c([n+]2=O)CCCC3)cc1`, the “hERG current change (%, negative = inhibition) at 1uM” value came to 14.6%.
Then `Cc1ccc(C(=O)NCC2CCCO2)cc1[N+](=O)[O-]` (centres unmarked), with 8.55%.
With `CCN(CC)CCCN(Cc1cc2cc(OC)c(OC)cc2[nH]c1=O)C(=O)Nc1ccccc1`, the “hERG current change (%, negative = inhibition) at 1uM” value worked out at 8.53%.
Then `O=C(NC(=S)Nc1ncc(Br)cc1Br)c1ccccc1`, with 15.1%; and `O=C(c1cccn2c(=O)c3ccccc3nc12)N1CCC2(CC1)OCCO2`, with 17.4%; and `CCCCNC(=O)c1cc(-c2ccc(OC)cc2)on1`, with -5.44%.
As to `CC(=O)NC1=NC(=O)/C(=C/c2cn(C(C)=O)nc2-c2ccccc2)S1`, the “hERG current change (%, negative = inhibition) at 1uM” value is given as 4.68%.
As for `COc1ccccc1NC(=O)c1ccc2c(O)c(S(=O)(=O)c3ccccc3)c(=O)[nH]c2c1`, the “hERG current change (%, negative = inhibition) at 1uM” value was 10.6%.
Consider `Cc1cccc([C@@H]2[C@@H]3C(=O)N(Cc4ccccc4)C(=O)[C@@H]3[C@]3(C)C(=O)N(c4ccc(C(F)(F)F)cc4)C(=O)N23)c1`, for which the “hERG current change (%, negative = inhibition) at 1uM” value was 9.23%.
Regarding `CCCCn1cc2c(c1-c1cccc(C)c1)c(=O)n(C)c(=O)n2C`, the “hERG current change (%, negative = inhibition) at 1uM” value is on record as 7.03%.
Turning to `CCN(C(=O)CO/N=C/c1ccc(OC)cc1OC)c1c(N)n(Cc2ccccc2)c(=O)[nH]c1=O`, the “hERG current change (%, negative = inhibition) at 1uM” value was 4.92%.
Then `Cc1ccc2nc3c(c(Nc4ccc5c(c4)OCCO5)c2c1)CCC3.Cl`, with -5.67%; and `O=C(COc1ccc(S(=O)(=O)NC2CCCCC2)cc1)NC1CC1`, with 7.81%; and `CCO[C@H]1OC(C(N)=O)=C[C@@H](C(C)(C)C)[C@@H]1CCCO`, with 16.9%.
Then `CCc1ncc(CN2CCCC(C(=O)Nc3ccc(-c4cscn4)cc3)C2)cn1` (centres unmarked), with 7.12%; and `CCN1CCN(Cc2c(O)c(Cl)cc3c(C)cc(=O)oc23)CC1`, with -7.05%; and `Cc1ccc(CNC(=S)NC2CCCCC2)cc1`, with 9.07%.
Consider `CC1CC(C)CN(S(=O)(=O)c2ccc(NC(=S)NC(=O)c3ccccc3)cc2)C1` (centres unmarked), for which the “hERG current change (%, negative = inhibition) at 1uM” value was found to be 2.58%.
As for `COC(=O)N/N=C/c1cn(CCOc2ccc(OC)cc2)c2ccccc12`, the “hERG current change (%, negative = inhibition) at 1uM” value turned out to be 17.1%.
As to `COc1ccccc1N(Cc1ccccc1)S(=O)(=O)c1cccc(C(=O)Nc2cc(C)ccn2)c1`, the “hERG current change (%, negative = inhibition) at 1uM” value was found to be 19.1%.
Then `CCOC(=O)C1CCN(c2cc3c(cc2NC(=O)c2ccc(OC)c(OC)c2)n(C)c(=O)n3C)CC1`, with 17.4%; and `Cc1cccnc1NC(=O)c1ccccc1NC(=O)C(C)(C)C`, with 9.13%.
On to `CCOc1ccc(NC(=O)c2c(NC(=O)CN3CCCC3)sc3c2CCC3)cc1`, for which the “hERG current change (%, negative = inhibition) at 1uM” value stood at 13.6%.
In the case of `O=C(NC(=S)Nc1ccccc1)C1CCCCC1`, the “hERG current change (%, negative = inhibition) at 1uM” value turned out to be 6.36%.
Consider `Cc1c(C(=O)Nc2ccccn2)sc2nc3n(c(=O)c12)CCC3`, for which the “hERG current change (%, negative = inhibition) at 1uM” value is on record as 10.1%.
Regarding `COc1ccc(OC)c(N(CC(=O)N2CCc3ccccc3C2)S(C)(=O)=O)c1`, the “hERG current change (%, negative = inhibition) at 1uM” value is on record as 2.1%.
As for `CCn1c(C)nc2cc(C(=O)NNC(=S)Nc3ccc(Cl)cc3)ccc21`, the “hERG current change (%, negative = inhibition) at 1uM” value came out at 9.6%.
Consider `CC(C)(CNC(=O)c1cc([N+](=O)[O-])ccc1N1CCC(Cc2ccccc2)CC1)N1CCOCC1`, for which the “hERG current change (%, negative = inhibition) at 1uM” value is 2.46%.
As to `CC1CCc2c(nc3ncnn3c2N2CC(C)OC(C)C2)C1` (centres unmarked), the “hERG current change (%, negative = inhibition) at 1uM” value worked out at 12.5%.
As for `Cc1ccc(NC(=O)C2CCCN(S(=O)(=O)c3c(C)noc3C)C2)cc1F` (centres unmarked), the “hERG current change (%, negative = inhibition) at 1uM” value is 8.2%.
With `COC(=O)c1cscc1NC(C)=O`, the “hERG current change (%, negative = inhibition) at 1uM” value was 15.2%.
As for `Cc1nnc(SCC(=O)Nc2c(Cl)cccc2Cl)n(N)c1=O`, the “hERG current change (%, negative = inhibition) at 1uM” value stood at 17.8%.
Then `CCOc1ccccc1N1CCN(C(=O)NC2CCCCC2)CC1`, with 7.29%; and `COc1cc(C(=O)N2CC(C)OC(C)C2)c([N+](=O)[O-])cc1OC` (centres unmarked), with 6.35%.
